# Source: the supplement of paper PMC11417369
# This is one part of the list.
# Test system: PfSIP2 AP2 domain 1 (GST-tagged)
# Assay: gcPBM binding intensity (ln(normalized median fluorescence intensity)); higher = stronger DNA binding
# Outline: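 An Agilent 4 × 180k array of primer-extended double-stranded 36-bp intergenic genomic probes, with negative controls, was incubated for 1 h with GST-tagged P. falciparum DNA-binding domains expressed in E. coli. Alexa488 anti-GST antibody detected bound protein, scanned at 488 nm. Binding intensity is the highest Masliner-normalised natural-log median intensity across replicate spots of either probe orientation.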
row,Sequence,gcPBM binding intensity (ln)
1,GTCACATTGTTATATTGTACAAATGTCGTTCTTTTT [XGTACX_site8098],6.96
2,TAAATATATAAATACACACAAACATACATATATATA [CACACA_site4050],7.55
3,ATATAAAAATATATTAATATAAATAAATGGACATAT [XGTACX_negctrl_site488],7.17
4,CTTATACATTATTAACGTACATGTTATATGAATAAC [XGTACX_site5752],6.99
5,AACATTATAGGACACACACACACATATATATATATA [CACACA_site4721],9.36
6,TTTTTTTTTTTTTTTTTTTTTTTTAAATGCTTCTAA [TGCATGCA_negctrl_site253],7.08
7,CATTATGTTGTAAATACACACATACCTATACATACA [CACACA_site6485],7.1
8,TATTTATTTATATTTACACACATTCATATAAATTCA [CACACA_site7628],7.09
9,TCTGAGAATGATAAAAAAAAAAAAAATGAAAAATTA [CACACA_negctrl_site1478],6.59
10,ACGATATTTTTGGTGACACACATATATATATATATA [CACACA_site126],9.49
11,TTTTTTTTTTTATCTGCACACCCTTTTGTGAATATT [CACACA_site789],7.51
12,AATGAGCGTTAAAAATGTACAGAAAATTGGAATTAT [XGTACX_site5743],6.85
13,AAAACTTTTAGTTATACACACAACATAGAAAATATT [CACACA_site6287],6.94
14,AACAATCAAATAGACACACACACACCCAAACATAAA [CACACA_site2757],7.04
15,CTCCTACAAATATGTAGTACATTCAAAATAAATACC [XGTACX_site8207],7.64
16,ATGCAATAAATATACACACACAAATCTATATTTATA [CACACA_site7179],7.02
17,AATTATTATATATATATATATATATATTTATATATT [GTGCAC_negctrl_site387],7.53
18,AGTTCAAGGATTAAGACACACATATAAATAAATAAA [CACACA_site3662],6.98
19,AAATAAAATAATTATAATACTAAAAATAATACATAA [GTGCAC_negctrl_site106],7.01

row,Sequence,gcPBM binding intensity (ln)
1,TTTTTTTTGTAGAATTGTACTTATAAAATATATATA [XGTACX_site2116],7.13
2,AAAAAATGGATGATCACACACTTCATAAAAGTTGCA [CACACA_site7109],6.65
3,CATTTTTTAAGCATCACACACGAAAGAACAAAGTGG [CACACA_site4755],7.42
4,TGGAAAATTATAAGGTGTACATATAAGCTATTATAT [XGTACX_site118],7.01
5,TTTTTTTTTTTAAGGTGTACAATAAAAATTTATGCA [XGTACX_site8860],7
6,CATATATAAAATATATGTACTTATAGAACATAATTT [XGTACX_site1936],6.75
7,AGGAATAAATAATTAACACACACAATCTTTTTTTTT [CACACA_site9027],6.78
8,TAATAAGTATAAAATAGTACATATAAATATATCAAA [XGTACX_site8834],6.85
9,ACTTTTTCACATAAAAATGATCCGATTAGTAATAAT [XGTACX_negctrl_site248],7.08
10,ATAATATTAGTAAACACACTCAAATTATATATGATA [CACACA_site5721],6.88
11,AAATAAAAAAACTATTGTACTGAATACAAATTAAAT [XGTACX_site3793],6.86
12,AGTATACATTCATTTTGTACTCAATGATTTGATAAC [XGTACX_site6787],6.97
13,ATAATTATATTCCATACACACATATATTTAAAGGTT [CACACA_site2957],6.96
14,TAAATAAATACATACACACACATACATATATATATA [CACACA_site3129],9.32
15,TTATTGTTTATTAAATGTACAGATTCGTTAAAATTA [XGTACX_site3041],7.27
16,ACAACAATATGGAATTGTACATATATATATAAATAT [XGTACX_site3139],7.06
17,TATTTTTTTGTGTTTGGTACACACGTTATAAAAAAT [XGTACX_site2655],7.36
18,CTAGCAAATACATACACACACACACCCATACATATA [CACACA_site3496],7.1
19,TACACAAAACATAAAAGTACATAATAATAAAGTTAA [XGTACX_site8872],7.12

row,Sequence,gcPBM binding intensity (ln)
1,GAACAAATAAAAAGGAGTACAATCAAATCTACGTAT [XGTACX_site343],7.01
2,TTATAATAAATATGAAGTACTATAAATATGGTATAT [XGTACX_site5448],7.04
3,CACTAAAATGGACACACACACACACCGATATATATA [CACACA_site6139],7.33
4,ATCGCATAAAGACAAGAACACACATATATATTGTAG [CACACA_site9229],7.07
5,AATAAATATAGGAATACACACAATATAAATGTATTG [CACACA_site3366],6.91
6,ATTTGGCATAAACACACACACACACCCACCCACATA [CACACA_site8096],7.11
7,TTTTTATTGAGAACAGTGCAAATAACAAAAAAAAAA,8.56
8,AAAAAGAAGATGCAAACATGCACACAGAAAAAAAAA [TGCATGCA_site375],7.94
9,AAAAAAAAAAAAATTACACACATACAGATAATAATA [CACACA_site5244],7.03
10,TTTTTTTTTTGAATATGTACTTAAAAAAATTTTTTT [XGTACX_site3851],6.89
11,CTATTATAAAAATGATGTACACTTATATATACATAT [XGTACX_site6087],7.19
12,TAATTTTTTTTTTTTTTTTTTTTTTTTTTTTTTTTA [CACACA_negctrl_site1218],6.91
13,TTTTCATTCCACAACGCACACCCATTTAAAAAAAAA [CACACA_site1377],7.76
14,AAAAAATATTTTAGTGGTACATTTGTAGCTCTCAAA [XGTACX_site4859],6.58
15,AATCAAATATTTAAATGTACTCAAGAAGGCTTAATC [XGTACX_site6907],6.96
16,ATAACATGAACATATGTTACACAAACATACATACAT [XGTACX_negctrl_site365],7.17
17,AAAAATATAATATAATGTACACAAAAAAAAAAAATC [XGTACX_site1427],7.1
18,TATGAAGACACAAATACACACACTCAAAAAAAAAAA [CACACA_site2660],6.93
